{"source": "PubChem BioAssay AID1476", "about": "(National Center for Advancing Translational Sciences (NCATS), 2009)", "note": "Hit rate of the full screen: of about 200,000 compounds, about 4,500 (2.2%) were called active. Inconclusive means that the source gave no clear call. Such entries were picked first, then a sample of the others. The call rests on the fitted dose curve; in most records, active means well fitted inhibition curve with a large enough effect; inconclusive means small, poorly fitted or top-dose-only effect, or effect the other way; inactive means flat fitted curve, though single readings scatter. Where the call is inconclusive, the potency comes from a doubtful curve fit. Potency means the concentration at half of the fitted maximal effect; tags describe the fitted curve by direction and shape.", "data": [{"molecular_target": "Cruzipain (Trypanosoma cruzi) (UniProt P25779)", "sequence (P25779 whole entry, looked up)": "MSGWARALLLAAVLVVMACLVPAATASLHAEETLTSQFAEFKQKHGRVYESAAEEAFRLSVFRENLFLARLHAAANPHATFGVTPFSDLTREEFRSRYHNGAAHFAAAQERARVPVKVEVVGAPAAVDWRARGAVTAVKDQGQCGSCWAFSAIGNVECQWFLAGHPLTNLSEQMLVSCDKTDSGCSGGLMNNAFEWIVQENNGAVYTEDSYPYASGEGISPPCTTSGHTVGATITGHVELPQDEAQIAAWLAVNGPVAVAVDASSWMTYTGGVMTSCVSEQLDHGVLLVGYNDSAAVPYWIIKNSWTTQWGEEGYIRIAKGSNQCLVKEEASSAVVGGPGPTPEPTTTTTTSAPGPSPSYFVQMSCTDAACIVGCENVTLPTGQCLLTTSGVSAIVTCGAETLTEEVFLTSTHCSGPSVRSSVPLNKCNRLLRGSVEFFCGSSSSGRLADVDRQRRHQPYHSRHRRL", "assay": "qHTS Assay for Promiscuous and Specific Inhibitors of Cruzain (without detergent); further: nearly all actives have a fitted effect of over 40% in size;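 on max response, negative = inhibition: plate controls were enzyme without inhibitor for no effect and buffer without enzyme for full effect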", "conditions": "purified cruzain, Z-FR-AMC fluorescence, no detergent", "summary_of_the_method": "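Detergent-free condition (0.00005% Triton X-100) in acetate buffer pH 5.5 with DTT. 1.5 nM enzyme and compound were pre-mixed 15 min, then 2 uM Z-FR-AMC substrate added; reaction progress from fluorescence change between first and third reads (60 s).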", "values": [{"smiles": "C/C(CC1CC(C)(C)OC1=O)=N/Nc1nc(-c2ccccc2)cs1", "note": "(stereo not given)", "Potency": "inconclusive: 15.8 µM [inhibitor, partial curve, poor fit]"}, {"smiles": "COc1cccc(CC(NC(C)=O)C(=O)NC2CCN(S(=O)(=O)c3ccc4ccccc4c3)CC2)c1", "note": "(stereo not given)", "Potency": "inconclusive: 25.1 µM [activator, partial curve]"}, {"smiles": "CCCCNC(=O)C(C#N)c1nc2ccccc2nc1N1CCN(c2ccccc2F)CC1", "note": "(stereo not given)", "Potency": "inconclusive: 39.8 µM [activator, single point]"}, {"smiles": "Cc1nc2ccc(C(=O)N3CCSCC3)cc2s1", "Potency": "inconclusive: 25.1 µM [inhibitor, single point]"}, {"smiles": "Cc1ccc(C(c2nnnn2CC2CCCO2)N2CCN(c3cccc(C)c3C)CC2)cc1", "note": "(stereo not given)", "Potency": "inconclusive: 31.6 µM [activator, single point]"}, {"smiles": "Cc1ccc(CNc2nc(N)c([N+](=O)[O-])c(Nc3cccc(F)c3)n2)cc1", "Potency": "active: 20 µM"}, {"smiles": "COc1ccc(C(C[N+](=O)[O-])c2c(-c3ccccc3)cc3ccccn23)c(OC)c1", "note": "(stereo not given)", "Potency": "inconclusive: 31.6 µM [inhibitor, single point]"}, {"smiles": "O=C(Nc1ccc(-c2csc(-c3ccccc3)n2)cc1)c1ccccc1", "Potency": "inconclusive: 31.6 µM [inhibitor, single point]"}, {"smiles": "CCOC(=O)c1cc(C)n(CC2CCC(C(=O)Nc3ccc(OC)c(OC)c3)CC2)c1C", "note": "(stereo not given)", "Potency": "inconclusive: 12.6 µM [activator, partial curve]"}, {"smiles": "Cc1cc2c(cc1NS(=O)(=O)c1ccc(NC(=O)CC(C)C)cc1)n(C)c(=O)c(=O)n2C", "Potency": "inconclusive: 25.1 µM [activator, single point]"}, {"smiles": "N#Cc1c(NC(=O)CN2CCN(C(=O)c3ccco3)CC2)sc2c1CCCCC2", "Potency": "inconclusive: 31.6 µM [activator, single point]"}, {"smiles": "Cc1ccc(-c2csc(/C(C#N)=C/Nc3ccc4c(c3)OCCO4)n2)cc1", "Potency": "inconclusive: 15.8 µM [inhibitor, partial curve, poor fit]"}, {"smiles": "CCN1C(=O)S/C(=C\\c2ccc(N3CCOCC3)cc2C)C1=O", "max response, negative = inhibition": "inactive: 9%"}, {"smiles": "CCc1ccc(-n2nc(C)c3c(C)cc(=O)n(CC(=O)Nc4cc(C)ccc4C)c32)cc1", "max response, negative = inhibition": "inactive: 1.48%"}, {"smiles": "N#CC1=C(N)C(C#N)(C#N)C(c2cccnc2)C2CN(C(=O)OCc3ccccc3)CC=C12", "note": "(stereo not given)", "Potency": "inconclusive: 15.8 µM [activator, partial curve]"}, {"smiles": "O=C(O)c1ccccc1N/N=C\\c1ccnc2ccccc12", "Potency": "inconclusive: 39.8 µM [activator, single point]"}, {"smiles": "O=C(Nc1ccc(Cl)cc1)Nc1nc(-c2sccc2Br)cs1", "Potency": "active: 10 µM"}, {"smiles": "Cc1cc(C)cc(C(=O)NCCc2csc(-c3ccc(C(F)(F)F)cc3)n2)c1", "Potency": "inconclusive: 7.94 µM [activator, single point]"}, {"smiles": "COc1ccc(NC(=S)NNc2ccc([N+](=O)[O-])cc2S(=O)(=O)Nc2ccc(C)cc2C)cc1", "Potency": "active: 25.1 µM"}, {"smiles": "O=C(CSc1nnnn1-c1cccc2ccccc12)Nc1ccc(N2CCOCC2)c(Cl)c1", "Potency": "inconclusive: 39.8 µM [inhibitor, single point]"}, {"smiles": "COc1ccc(N2C(=O)C(Cl)=C(N3CCN(Cc4ccccc4)CC3)C2=O)cc1", "max response, negative = inhibition": "inactive: -29%"}, {"smiles": "NC(=O)c1ccc(NC(=O)COC(=O)/C=C/c2cn(-c3ccccc3)nc2-c2cccnc2)cc1", "Potency": "inconclusive: 39.8 µM [inhibitor, single point]"}, {"smiles": "CSc1ccccc1NC(=O)Nc1ccc(F)c(Cl)c1", "max response, negative = inhibition": "inactive: 2.27%"}, {"smiles": "Cc1cc(NC(=O)CN2C(=O)S/C(=C\\c3ccccc3)C2=O)no1", "Potency": "inconclusive: 39.8 µM [inhibitor, single point]"}, {"smiles": "COc1ccc(S(=O)(=O)c2c(Nc3ccc(C)cc3C)sc(C(=O)c3ccc(F)cc3)c2N)cc1", "Potency": "active: 5.01 µM"}, {"smiles": "Cc1cc(C(=O)N2CCN(c3cccc(Cl)c3)CC2)c2c(C)nn(-c3ccccc3Cl)c2n1", "Potency": "inconclusive: 39.8 µM [activator, single point]"}, {"smiles": "CCC(CC)C(=O)Nc1cccc(-c2nc3ccccc3o2)c1", "Potency": "inconclusive: 39.8 µM [activator, single point]"}, {"smiles": "CCOC(=O)CSc1nc2ccc(NC(=O)COc3ccc(F)cc3)cc2s1", "max response, negative = inhibition": "inactive: -4.01%"}, {"smiles": "COc1cccc(CS(=O)(=O)c2nnnn2CC(C)C)c1", "max response, negative = inhibition": "inactive: -0.736%"}, {"smiles": "C1CCC(C(C[C@@H]2CCCCN2)C2CCCCC2)CC1", "max response, negative = inhibition": "inactive: -7.49%"}, {"smiles": "COC(=O)[C@H](Cc1ccccc1)NC(=O)[C@H]1C[C@@H]1[C@H](NC(=O)OCc1ccccc1)c1ccccc1", "max response, negative = inhibition": "inactive: -15.1%"}, {"smiles": "CCn1cc(C(=O)N2CCN(c3cc(Cl)ccc3C)CC2)c(=O)c2cc(S(=O)(=O)N3CCCC3)ccc21", "Potency": "inconclusive: 20 µM [activator, partial curve]"}, {"smiles": "CCN(CC)c1ccc(/C=C(\\C#N)C(=O)c2ccc(Br)cc2)cc1", "Potency": "inconclusive: 12.6 µM [inhibitor, partial curve]"}, {"smiles": "CCOc1ccc2nc(N3CCC(C(=O)N4CCC5(CC4)OCCO5)CC3)sc2c1", "Potency": "inconclusive: 39.8 µM [activator, single point]"}, {"smiles": "O=c1c(O)c(Br)ccc2c(Br)c(O)c(O)c(O)c12", "max response, negative = inhibition": "inactive: -27.1%"}, {"smiles": "COC(=O)c1ccccc1C[C@]1(C(=O)OC)C=C[C@H](C)[C@@H](c2ccccc2)N1C(=O)C(F)(F)F", "max response, negative = inhibition": "inactive: -0.393%"}, {"smiles": "Cn1ccc2c(OCC(=O)Nc3ccc(OC(F)(F)F)cc3)cccc2c1=O", "Potency": "inconclusive: 39.8 µM [activator, single point]"}, {"smiles": "Cc1ccc(CNC(=O)C2CCN(S(=O)(=O)c3ccc4nc5c(c(C(=O)O)c4c3)CC(C)CC5)CC2)cc1", "note": "(stereo not given)", "Potency": "inconclusive: 25.1 µM [activator, partial curve]"}, {"smiles": "C/C(=N\\NC(=O)c1c(Cl)cnn1C)c1cccc(NC(=O)COc2ccccc2)c1", "Potency": "inconclusive: 39.8 µM [activator, single point]"}, {"smiles": "O=C(CSc1nc2ccccc2s1)c1sc2sc3ccccc3[n+]2c1O", "max response, negative = inhibition": "inactive: 1.83%"}, {"smiles": "COc1ccc2ccccc2c1/C=N/NC(=O)c1cccc(Br)c1", "Potency": "inconclusive: 25.1 µM [inhibitor, single point]"}, {"smiles": "Cc1ccccc1OCC(=O)Nc1ccc(-c2nc3cc(Cl)cc(Cl)c3o2)cc1", "max response, negative = inhibition": "inactive: -7.37%"}, {"smiles": "Cc1nn(-c2ccccc2)c(/N=C/c2ccccc2O)c1-c1ccccc1", "Potency": "inconclusive: 39.8 µM [inhibitor, single point]"}, {"smiles": "COC(=O)Cn1c(=NC(=O)c2ccc([N+](=O)[O-])s2)sc2cc(Br)ccc21", "Potency": "active: 10 µM"}, {"smiles": "COc1ccc(COC(=O)c2ccc(N3CCCC3=O)cc2)cc1F", "Potency": "inconclusive: 39.8 µM [activator, single point]"}, {"smiles": "Cc1ccc(-n2nc(CO)c(C(=O)NCCC(C)C)n2)cc1C", "max response, negative = inhibition": "inactive: -13.6%"}, {"smiles": "CSCC[C@H](NC(=O)OC(C)(C)C)C(=O)N/N=C/c1cc2ccc(C)cc2nc1Cl", "Potency": "inconclusive: 25.1 µM [activator, single point]"}, {"smiles": "c1ccc(-n2cnc3cc(NCc4ccncc4)ccc32)cc1", "max response, negative = inhibition": "inactive: 8.45%"}, {"smiles": "O=C(NC1=NCCS1)C12CC3CC(C1)CC(C(=O)NC1=NCCS1)(C3)C2", "max response, negative = inhibition": "inactive: -7.02%"}, {"smiles": "CCOC(=O)c1nnn(C(CC)C(=O)Nc2ccc(F)cc2)c1C(=O)OCC", "note": "(stereo not given)", "max response, negative = inhibition": "inactive: -5.56%"}, {"smiles": "CC1CCN(S(=O)(=O)c2cc(C(=O)N3CCN(c4cccc(Cl)c4)CC3)n(C)c2)CC1", "Potency": "inconclusive: 31.6 µM [activator, single point]"}, {"smiles": "COc1ccc(Cl)cc1N/C(N)=N/c1nc(CSc2ccc(C)cc2)cc(=O)[nH]1", "Potency": "inconclusive: 39.8 µM [inhibitor, single point]"}, {"smiles": "Cc1sc2ncnc(SCC(=O)N3c4ccccc4Sc4ccc(Cl)cc43)c2c1C", "Potency": "active: 7.94 µM"}, {"smiles": "N=C1SC(c2ccccc2)C(=O)N1c1ncc(Cc2ccccc2)s1", "note": "(stereo not given)", "Potency": "active: 7.94 µM"}, {"smiles": "Cc1ccc(-n2c(N)c(C(=O)Nc3c(C)n(C)n(-c4ccccc4)c3=O)c3nc4ccccc4nc32)cc1C", "Potency": "inconclusive: 15.8 µM [activator, partial curve]"}, {"smiles": "COc1cccc(C2C(C#N)=C(N)OC3=C2C(=O)CCC3)c1OC(=O)c1ccco1", "note": "(stereo not given)", "Potency": "inconclusive: 39.8 µM [inhibitor, single point]"}, {"smiles": "COc1ccc2c(c1)-c1nc(NC(=O)c3cccc(Br)c3)sc1CC2", "Potency": "inconclusive: 31.6 µM [inhibitor, single point]"}, {"smiles": "Cc1ccc(C)c(OCC(=O)Nc2nc3ccc([N+](=O)[O-])cc3s2)c1", "Potency": "inconclusive: 39.8 µM [inhibitor, single point]"}, {"smiles": "COCc1cc(C)nc2c1C(=O)NC(c1ccc(NC(C)=O)cc1)N2Cc1ccccc1", "note": "(stereo not given)", "Potency": "inconclusive: 31.6 µM [activator, single point]"}, {"smiles": "COCCNC(=S)N(CCc1c(C)[nH]c2ccc(C)cc12)Cc1cc(OC)c(OC)c(OC)c1", "Potency": "inconclusive: 25.1 µM [activator, partial curve]"}, {"smiles": "CN1C(=O)/C(=N\\OC(=O)c2cccc3ccccc23)c2ccccc21", "Potency": "active: 7.94 µM"}, {"smiles": "Cc1c2cc(O)c(=O)cc-2oc2cc(O)c(O)cc12", "Potency": "inconclusive: 39.8 µM [inhibitor, single point]"}, {"smiles": "CS(=O)(=O)CC[C@@H](C(=O)NCCc1ccccc1)N1Cc2ccccc2C1=O", "max response, negative = inhibition": "inactive: -4.22%"}, {"smiles": "Nc1nc(CN2CCCCCC2)nc(Nc2ccc(F)cc2)n1", "Potency": "inconclusive: 25.1 µM [inhibitor, single point]"}, {"smiles": "CC(C)(C)OC(=O)N1CCC(c2c(C(=O)N3CCN(C(=O)c4ccco4)CC3)cnn2-c2cccc(Cl)c2)CC1", "Potency": "inconclusive: 25.1 µM [activator, single point]"}]}]}
